# Numbering of substitutions follows the chain as printed; changes in the protein carry UniProt numbers. This is one part of the list.
# T1: RBFOX1 RRM RbFoxmut (Fox-RRM*) (Homo sapiens, UniProt Q9NWB1 109-208, R118D;E147R;N151S;E152T)
# T1 sequence: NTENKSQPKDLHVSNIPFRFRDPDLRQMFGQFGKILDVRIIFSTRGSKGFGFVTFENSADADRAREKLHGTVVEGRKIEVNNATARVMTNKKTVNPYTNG
# B1: AUAAAGG (DNA:RNA)
# RNA: GGGAGACCGGAAUUCAGAUUGUCCAUAAAGGUUAAAUCCCGUCGUAGCCACCA
# DNA 1: CAATCTGAATTCCGGTCTCCC
# DNA 2: TGGTGGCTACGACGGGATT
# B2: CGUCUCC (DNA:RNA)
# RNA: GGGAGACCGGAAUUCAGAUUGUCCCGUCUCCUUAAAUCCCGUCGUAGCCACCA
# DNA 1: CAATCTGAATTCCGGTCTCCC
# DNA 2: TGGTGGCTACGACGGGATT
# B3: CGUGUCC (DNA:RNA)
# RNA: B2 RNA with C28G
# DNA 1: CAATCTGAATTCCGGTCTCCC
# DNA 2: TGGTGGCTACGACGGGATT
# B4: UUGGUGA (DNA:RNA)
# RNA: B1 RNA with A25U, A27G, A28G, A29U, G31A
# DNA 1: CAATCTGAATTCCGGTCTCCC
# DNA 2: TGGTGGCTACGACGGGATT
# B5: GGAGAGC (DNA:RNA)
# RNA: B1 RNA with A25G, U26G, A28G, G31C
# DNA 1: CAATCTGAATTCCGGTCTCCC
# DNA 2: TGGTGGCTACGACGGGATT
# B6: AGUGCAU (DNA:RNA)
# RNA: B2 RNA with C25A, C28G, U29C, C30A, C31U
# DNA 1: CAATCTGAATTCCGGTCTCCC
# DNA 2: TGGTGGCTACGACGGGATT
# B7: CCACUUA (DNA:RNA)
# RNA: B2 RNA with G26C, U27A, C30U, C31A
# DNA 1: CAATCTGAATTCCGGTCTCCC
# DNA 2: TGGTGGCTACGACGGGATT
# B8: CCCAAAA (DNA:RNA)
# RNA: B1 RNA with A25C, U26C, A27C, G30A, G31A
# DNA 1: CAATCTGAATTCCGGTCTCCC
# DNA 2: TGGTGGCTACGACGGGATT
# B9: UGGCGUU (DNA:RNA)
# RNA: B2 RNA with C25U, U27G, U29G, C30U, C31U
# DNA 1: CAATCTGAATTCCGGTCTCCC
# DNA 2: TGGTGGCTACGACGGGATT
# B10: AAGUUUU (DNA:RNA)
# RNA: B1 RNA with U26A, A27G, A28U, A29U, G30U, G31U
# DNA 1: CAATCTGAATTCCGGTCTCCC
# DNA 2: TGGTGGCTACGACGGGATT
# B11: GUUCGAC (DNA:RNA)
# RNA: B2 RNA with C25G, G26U, U29G, C30A
# DNA 1: CAATCTGAATTCCGGTCTCCC
# DNA 2: TGGTGGCTACGACGGGATT
# B12: AGGAGCG (DNA:RNA)
# RNA: B1 RNA with U26G, A27G, A29G, G30C
# DNA 1: CAATCTGAATTCCGGTCTCCC
# DNA 2: TGGTGGCTACGACGGGATT
# B13: ACUGCUG (DNA:RNA)
# RNA: B1 RNA with U26C, A27U, A28G, A29C, G30U
# DNA 1: CAATCTGAATTCCGGTCTCCC
# DNA 2: TGGTGGCTACGACGGGATT
# B14: GAUAAGA (DNA:RNA)
# RNA: B1 RNA with A25G, U26A, A27U, G31A
# DNA 1: CAATCTGAATTCCGGTCTCCC
# DNA 2: TGGTGGCTACGACGGGATT
# B15: AAUCACA (DNA:RNA)
# RNA: B2 RNA with C25A, G26A, U29A, C31A
# DNA 1: CAATCTGAATTCCGGTCTCCC
# DNA 2: TGGTGGCTACGACGGGATT
# B16: CUUGCAU (DNA:RNA)
# RNA: B2 RNA with G26U, C28G, U29C, C30A, C31U
# DNA 1: CAATCTGAATTCCGGTCTCCC
# DNA 2: TGGTGGCTACGACGGGATT
# B17: GCGACCA (DNA:RNA)
# RNA: B1 RNA with A25G, U26C, A27G, A29C, G30C, G31A
# DNA 1: CAATCTGAATTCCGGTCTCCC
# DNA 2: TGGTGGCTACGACGGGATT
# B18: UUAGGUC (DNA:RNA)
# RNA: B1 RNA with A25U, A28G, A29G, G30U, G31C
# DNA 1: CAATCTGAATTCCGGTCTCCC
# DNA 2: TGGTGGCTACGACGGGATT
# B19: CGGGCUG (DNA:RNA)
# RNA: B2 RNA with U27G, C28G, U29C, C30U, C31G
# DNA 1: CAATCTGAATTCCGGTCTCCC
# DNA 2: TGGTGGCTACGACGGGATT
# B20: AUUCCGC (DNA:RNA)
# RNA: B1 RNA with A27U, A28C, A29C, G31C
# DNA 1: CAATCTGAATTCCGGTCTCCC
# DNA 2: TGGTGGCTACGACGGGATT
# B21: UAUUACC (DNA:RNA)
# RNA: B2 RNA with C25U, G26A, C28U, U29A
# DNA 1: CAATCTGAATTCCGGTCTCCC
# DNA 2: TGGTGGCTACGACGGGATT
# B22: AAAACAA (DNA:RNA)
# RNA: B1 RNA with U26A, A29C, G30A, G31A
# DNA 1: CAATCTGAATTCCGGTCTCCC
# DNA 2: TGGTGGCTACGACGGGATT
# B23: GGGGGGA (DNA:RNA)
# RNA: B1 RNA with A25G, U26G, A27G, A28G, A29G, G31A
# DNA 1: CAATCTGAATTCCGGTCTCCC
# DNA 2: TGGTGGCTACGACGGGATT
# B24: UCGGUAG (DNA:RNA)
# RNA: B1 RNA with A25U, U26C, A27G, A28G, A29U, G30A
# DNA 1: CAATCTGAATTCCGGTCTCCC
# DNA 2: TGGTGGCTACGACGGGATT
# B25: AAGAUUU (DNA:RNA)
# RNA: B1 RNA with U26A, A27G, A29U, G30U, G31U
# DNA 1: CAATCTGAATTCCGGTCTCCC
# DNA 2: TGGTGGCTACGACGGGATT
# B26: GGUUUAC (DNA:RNA)
# RNA: B2 RNA with C25G, C28U, C30A
# DNA 1: CAATCTGAATTCCGGTCTCCC
# DNA 2: TGGTGGCTACGACGGGATT
# B27: CCAUUCU (DNA:RNA)
# RNA: B2 RNA with G26C, U27A, C28U, C31U
# DNA 1: CAATCTGAATTCCGGTCTCCC
# DNA 2: TGGTGGCTACGACGGGATT
# B28: UGACCUG (DNA:RNA)
# RNA: B1 RNA with A25U, U26G, A28C, A29C, G30U
# DNA 1: CAATCTGAATTCCGGTCTCCC
# DNA 2: TGGTGGCTACGACGGGATT
# B29: CCUGCGU (DNA:RNA)
# RNA: B2 RNA with G26C, C28G, U29C, C30G, C31U
# DNA 1: CAATCTGAATTCCGGTCTCCC
# DNA 2: TGGTGGCTACGACGGGATT
# B30: AUCAGGU (DNA:RNA)
# RNA: B1 RNA with A27C, A29G, G31U
# DNA 1: CAATCTGAATTCCGGTCTCCC
# DNA 2: TGGTGGCTACGACGGGATT
# B31: AAAAUUA (DNA:RNA)
# RNA: B1 RNA with U26A, A29U, G30U, G31A
# DNA 1: CAATCTGAATTCCGGTCTCCC
# DNA 2: TGGTGGCTACGACGGGATT
# Biological target: T1, RBFOX1 RRM RbFoxmut (Fox-RRM*)
# Test: EMSA; HiTS-Eq, 1 nM pool, 10 min; buffer printed only for the single-RNA assays: 10 mM Tris pH 7.5, 150 mM NaCl, 3.4 mM EDTA, 0.001% NP-40, 30 C
# Details: tags: His6 N-terminal (pET28a); label: 5' 32P
# Outline: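 Purified RbFox RRM (wild type or mutant) was equilibrated for 10 min in 50 µL with 1 nM of a 5′-radiolabelled pool of RNA with 7 randomized nucleotides, its flanks annealed to DNA oligonucleotides, across increasing protein concentrations. Free RNA was separated by 8% native PAGE, excised, reverse-transcribed, PCR-barcoded and sequenced on an Illumina HiSeq 2500. Relative association constants came from read-count changes of each variant against the control reaction, normalised to the cognate motif.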
row,Binder,binding signal
1,B1,0.0735 KA relative to UGCAUGU
2,B2,0.0476 KA relative to UGCAUGU
3,B3,0.0868 KA relative to UGCAUGU
4,B4,0.0857 KA relative to UGCAUGU
5,B5,0.0739 KA relative to UGCAUGU
6,B6,0.119 KA relative to UGCAUGU
7,B7,0.0992 KA relative to UGCAUGU
8,B8,0.0741 KA relative to UGCAUGU
9,B9,0.112 KA relative to UGCAUGU
10,B10,0.105 KA relative to UGCAUGU
11,B11,0.105 KA relative to UGCAUGU
12,B12,0.174 KA relative to UGCAUGU
13,B13,0.104 KA relative to UGCAUGU
14,B14,0.0718 KA relative to UGCAUGU
15,B15,0.0701 KA relative to UGCAUGU
16,B16,0.146 KA relative to UGCAUGU

row,Binder,binding signal
1,B17,0.0669 KA relative to UGCAUGU
2,B18,0.117 KA relative to UGCAUGU
3,B19,0.246 KA relative to UGCAUGU
4,B20,0.0872 KA relative to UGCAUGU
5,B21,0.0868 KA relative to UGCAUGU
6,B22,0.0697 KA relative to UGCAUGU
7,B23,0.082 KA relative to UGCAUGU
8,B24,0.123 KA relative to UGCAUGU
9,B25,0.106 KA relative to UGCAUGU
10,B26,0.0711 KA relative to UGCAUGU
11,B27,0.0706 KA relative to UGCAUGU
12,B28,0.123 KA relative to UGCAUGU
13,B29,0.119 KA relative to UGCAUGU
14,B30,0.144 KA relative to UGCAUGU
15,B31,0.0817 KA relative to UGCAUGU

# — publication PMC9911399, “Two distinct binding modes provide the RNA-binding protein RbFox with extraordinary sequence specificity”
